Measurements reported in PubChem BioAssay AID1466 (National Center for Advancing Translational Sciences (NCATS), 2008).
Several values for one entry are separate records, joined by “and”; a condition that tells them apart may be missing. Identical values can stand only once. Out of some 200,000 compounds screened, about 10 (0.005%) were called active. The shares of active, inactive and inconclusive entries below differ from those in the screen. Calls follow the shape of the dose curve; as a rule, active = well fitted inhibition curve with a large enough effect; inconclusive = small, poorly fitted or top-dose-only effect, or effect the other way, or another doubt; inactive = no such curve, though single readings can be large or run the other way. No potency is given beside an inconclusive call; the fits are too rough.
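For activity change, negative = inhibition in this document: plate controls were uninhibited enzyme wells for no effect and no-enzyme background for full effect.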
Potency is read from the fitted curve at half-maximal effect; tags tell the direction and shape of the fitted curve.

What follows are molecules tested against Lysosomal alpha-glucosidase (Homo sapiens) (UniProt P10253) (assay: qHTS Assay for Inhibitors of Human alpha-Glucosidase as a Potential Chaperone Treatment of Pompe Disease). Settings: purified human GAA, 4-MU-alpha-glucoside fluorescence; activity change, negative = inhibition: at 76.9 µM (top of the series) unless noted.
Procedure, shortened: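 Activity normalized between no-enzyme (basal) and enzyme-only wells. Conditions: 4 nM human enzyme, 400 uM fluorogenic substrate, citrate/phosphate pH 5.0 with Tween-20, 20 min room temperature, compounds up to 77 uM.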
For CC(=O)c1sc(N/N=C/c2ccc(C(C)C)cc2)nc1C, the activity change, negative = inhibition was inconclusive: -17.5% [inhibitor].
COc1ccc(OCC(=O)Nn2c(-c3ccc(OC)cc3)nc3ccccc3c2=O)cc1 was tested, and the activity change, negative = inhibition was inconclusive: 4.99% [activator].
COc1cc(/C=N/NC(=O)CN(Cc2ccco2)S(=O)(=O)c2ccccc2)ccc1O was tested, and the Potency was inconclusive [inhibitor, single point].
With O=c1c2ccccc2nc2c3ccccc3c(NCCO)nn12 the Potency was inconclusive [activator, single point].
COc1ccc(C2C/C(=N\O)C(C)(C)O2)cc1 (stereo not given) was tested, and the activity change, negative = inhibition was inconclusive: -16.5% [inhibitor].
In the case of O=C(CN1C(=O)c2ccccc2C1=O)NCC(=O)OCC(=O)c1ccc(Br)cc1, the activity change, negative = inhibition is reported as inconclusive: 16.5% [activator].
With COc1cc(C(=O)Nc2nnc(CC(C)C)s2)c([N+](=O)[O-])cc1OC the Potency was inconclusive [activator, full curve, poor fit].
In the case of Cn1c(=O)c2c(nc(SCCN3CCCCC3)n2C)n(C)c1=O, the Potency is reported as inconclusive [inhibitor, full curve, poor fit].
COc1cc(NS(=O)(=O)c2ccc(NC(=O)COc3ccccc3C)cc2)nc(OC)n1 was tested, and the Potency was inconclusive [inhibitor, partial curve].
For CCc1[nH]c(=O)c(C#N)c2c1CSC(C)(C)C2, the Potency was inconclusive [activator, single point].
For C=CCSC1=Nc2cc(OC)c(OC)cc2C2=NC(=O)CN12, the Potency was inconclusive [activator, partial curve].
With CS(=O)(=O)N(CC(=O)NC1CCCCCC1)Cc1ccc(Cl)cc1 the Potency was inconclusive [inhibitor, full curve, poor fit].
For Cn1c(N)c(C(=O)CSc2nc3ccccc3c(=O)n2CCCN2CCOCC2)c(=O)n(C)c1=O, the Potency was “inactive”.
For CCN1CCN(CCOc2cccc(Cl)c2Cl)CC1, the Potency was inconclusive [inhibitor, partial curve].
COc1ccccc1N1CCN(C(=O)COc2ccc(S(=O)(=O)NC(C)C)cc2)CC1 was tested, and the Potency was inconclusive [activator, single point].
In the case of CCOC(=O)NN1C(=O)c2ccccc2NC1c1ccccc1 (stereo not given), the Potency is reported as inconclusive [activator, single point].
For CCN(CC)c1ccc(NC(=O)Nc2ccc(C(C)=O)cc2)cc1, the Potency was inconclusive [inhibitor, single point].
With CC(=O)Nc1cccc(/C(C)=N/NC(=O)c2cccc(S(=O)(=O)N3CCOCC3)c2)c1 the activity change, negative = inhibition was inconclusive: -16.3% [inhibitor].
With Cc1cc(=O)oc2cc(Oc3ccc([N+](=O)[O-])cc3[N+](=O)[O-])ccc12 the Potency was inconclusive [activator, partial curve].
In the case of COc1cc2c(cc1OC)C(C)N(C(=O)c1cc3c(s1)-c1ccccc1OC3)CC2 (stereo not given), the Potency is reported as inconclusive [activator, partial curve].
With COc1ccccc1C1=NOC(COC(=O)c2ccc3ccccc3n2)C1 (stereo not given) the Potency was inconclusive [inhibitor, single point].
For CCCc1nn(-c2ccccc2)c2c1C(c1cccs1)C(C#N)=C(N)O2 (stereo not given), the Potency was inconclusive [inhibitor, full curve].
In the case of c1cncc(-c2nc(NCc3ccco3)c3ccccc3n2)c1, the Potency is reported as inconclusive [inhibitor, partial curve].
c1csc(-c2nnc(NC3CCCCC3)c3ccccc23)c1 was tested, and the Potency was inconclusive [inhibitor, single point].
With CC(C)Cn1c(/C=C/c2ccccc2)nc2ccccc21 the Potency was inconclusive [activator, single point].
CCCCCC1CC(CC(=O)NC(=S)Nc2ccccc2Cl)C(=O)O1 (stereo not given) was tested, and the activity change, negative = inhibition was inconclusive: 16.5% [activator].
With Cc1ccc(S(=O)(=O)N(CC(O)CN2CCOCC2)c2cc(Cl)ccc2Cl)cc1 (stereo not given) the Potency was inconclusive [inhibitor, single point].
For Cc1nn(Cc2ccccc2)c(C)c1C(=O)OCC(=O)c1cc(C)n(CC(F)(F)F)c1C, the Potency was inconclusive [inhibitor, partial curve, poor fit].
With O=C(Nc1ccc(Cl)cc1F)c1cc(S(=O)(=O)N2CCCCC2)ccc1F the Potency was inconclusive [activator, full curve, poor fit].
With NCCc1cnc[nH]1 the activity change, negative = inhibition was inactive: -17.1% [at 15.4 µM] and inactive: -4.06% [at 15.4 µM].
For C(=C\c1ccccc1)/CN1CCN(c2ncnc3c2oc2ccccc23)CC1, the Potency was inconclusive [inhibitor, full curve].
In the case of NS(=O)(=O)c1ccc(CCNC(=O)NC2(C(F)(F)F)Oc3ccccc3O2)cc1, the Potency is reported as inconclusive [inhibitor, partial curve].
CCOC(=O)c1ccc(S(=O)(=O)N2CCN(C(=O)CSc3nc4ccccc4o3)CC2)cc1 was tested, and the Potency was inconclusive [inhibitor, partial curve, poor fit].
Cc1ccccc1NC(=O)c1ccc(Cn2cc([N+](=O)[O-])cn2)o1 was tested, and the Potency was inconclusive [inhibitor, full curve, poor fit].
Cc1ccc(C(C)C)c(OCC(=O)Nc2ccccc2N2CCN(C)CC2)c1 was tested, and the Potency was inconclusive [inhibitor, partial curve].
In the case of Cn1cnnc1SCc1nnc(-c2ccccc2Br)o1, the activity change, negative = inhibition is reported as inconclusive: -15.1% [inhibitor].
COC(=O)c1sc2nc(C)nc(SCC(=O)N3CCC(C(=O)O)CC3)c2c1C was tested, and the Potency was inconclusive [inhibitor, single point].
CC(NC(=O)CN1CCCC1)C12CC3CC(CC(C3)C1)C2 (stereo not given) was tested, and the Potency was inconclusive [inhibitor, single point].
With O=C(Nc1ccc(CN2CCCCC2)cc1)c1cccc(Br)c1 the Potency was inconclusive [inhibitor, single point].
In the case of NC(=O)N/N=C(/CCCCCC/C(=N\NC(N)=O)c1ccccc1)c1ccccc1, the Potency is reported as inconclusive [inhibitor, single point].
COc1ccc(OC)c(NC(=O)C2CCN(c3cc(-c4ccccc4)nc4ncnn34)CC2)c1 was tested, and the Potency was inconclusive [inhibitor, single point].
With COCCn1c(C)cc(C(=O)CSc2cc(C)c3ccc(OC)cc3n2)c1C the activity change, negative = inhibition was inconclusive: -15.2% [inhibitor].
For O=C(O)CSCC(=O)N1CCN(S(=O)(=O)c2ccccc2)CC1, the Potency was “inactive”.
Cc1nn(Cc2ccccc2)c(Cl)c1/C=C/C(=O)OCC(=O)N(C)C1CCS(=O)(=O)C1 (stereo not given) was tested, and the Potency was inconclusive [inhibitor, single point].
With O=C(O)c1cc(NCc2cccs2)ccc1N1CCOCC1 the Potency was “inactive”.
For Cc1cccn2c(=O)c3cc(C(=O)NCc4ccco4)c(=N)n(C(C)C)c3nc12, the Potency was inconclusive [activator, single point].
In the case of CCCC(c1nnnn1Cc1cccs1)N1CCN(C)CC1 (stereo not given), the activity change, negative = inhibition is reported as inconclusive: 16.2% [activator].
For Cc1ccc(Oc2nc(CN3CCOCC3)nc3sc4c(c23)CCC(C)C4)cc1C (stereo not given), the activity change, negative = inhibition was inconclusive: -16.1% [inhibitor].
O=C(Cc1ccc(Cl)c(Cl)c1)Nc1ccccc1N1CCOCC1 was tested, and the Potency was inconclusive [inhibitor, single point].
CC1Cc2ccccc2N1C(=O)CSc1nnc(C2CC2)n1C (stereo not given) was tested, and the Potency was “inactive”.
NNC(=O)c1cc2c(N3CCC(Cc4ccccc4)CC3)ncnc2s1 was tested, and the Potency was inconclusive [activator, single point].
CC(C)c1ccc(NC(=S)NNC(=O)c2cccnc2)cc1 was tested, and the Potency was “inactive”.
For O=C(C[n+]1ccccc1)N1CCCc2ccccc21, the Potency was inconclusive [inhibitor, single point].
With CCc1ccc(NC2=NCC(c3ccccc3)S2)cc1 (stereo not given) the Potency was “inactive”.
For O=C(Nc1ccc(NC(=O)c2ccncc2)cc1)c1ccncc1, the Potency was inconclusive [inhibitor, partial curve].
COc1ccc(OC)c(/C=N/NC(=O)c2csc3ccccc23)c1 was tested, and the activity change, negative = inhibition was inconclusive: -15.1% [inhibitor].
In the case of O=C(NCC(=O)N(CCN1CCOCC1)C(C(=O)NC1CCCC1)c1ccccc1)c1cccs1 (stereo not given), the activity change, negative = inhibition is reported as inconclusive: 11.5% [activator].
CCOC(=O)C1CCCN(c2c(C(=O)c3ccccc3)cnc3ccc(OC)cc23)C1 (stereo not given) was tested, and the Potency was “inactive”.
With Cc1ccc(CCc2nnc(SCC(=O)Nc3cc(Cl)ccc3Cl)n2-c2ccccc2)o1 the activity change, negative = inhibition was inconclusive: -16% [inhibitor].
For O=C(O)C(Oc1ccc2c3c(c(=O)oc2c1)CCC3)c1ccccc1 (stereo not given), the Potency was inconclusive [activator, single point].
CC1CC(c2ccccc2)n2nc(NC(=O)CCc3ccccc3)nc2N1 (stereo not given) was tested, and the Potency was inconclusive [inhibitor, single point].
O=C(Nc1ccccc1N1CCCC1)c1ccc(Br)o1 was tested, and the Potency was inconclusive [inhibitor, single point].
Cc1ccc(CNC(=O)c2cc3c(=O)n(C)c4ccccc4c3n2C)o1 was tested, and the Potency was inconclusive [activator, partial curve].
Clc1ccccc1Cn1nnc2c(N3CCOCC3)nc(C3CC3)nc21 was tested, and the Potency was inconclusive [inhibitor, partial curve, poor fit].
CC(C)(C)NC(=O)C(c1ccc(O)cc1)N(C(=O)Cn1nnc(-c2ccc(F)cc2)n1)c1ccccc1F (stereo not given) was tested, and the Potency was inconclusive [inhibitor, full curve].
